# Measurements reported in the supplement of paper PMC8728848.
# The other results are listed elsewhere or left out.
# B1: rAAL-I144G (Agrocybe aegerita), Q6WY08 (protein)
# chain: MQGVNIYNISAGTSVDLAAPVTTGDIVTFFSSALNLNAGAGNPNNTTLNLFAENGAYLLHIAFRLQENVIIFNSRQPDGPWLVEQRVSDVANQFAGIDGKAMVTVFDHGDKYQVVINEKTVIQYTKQISGLTLSLSYNATEETSGFSTVVEAVTYTGLALEHHHHHH
# Columns and labels:
# Experiment in all cases: glycan array binding signal (z-score within array); higher = stronger binding
# Conditions in all cases: glycan notation: IUPAC condensed, linker removed; mutation: I144G
# [1] = target: Gal(b1-3)GlcNAc(b1-2)Man(a1-3)[Gal(b1-3)GlcNAc(b1-2)Man(a1-6)]Man(b1-4)GlcNAc(b1-4)GlcNAc
# Summary of the method: (§1)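 Glycan array data were curated from 3228 arrays in the Consortium for Functional Glycomics database and kept only where the protein sequence was available. Glycan names were converted to IUPAC-condensed notation, and columns mapping to the same glycan were averaged. The binding signal is a within-array Z-score, averaged across arrays of the same protein sequence at different concentrations or buffers and across linkers. Negative Z-scores can be read as non-binding.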
# [2] = target: Gal(b1-3)GlcNAc(b1-2)Man(a1-3)[Gal(b1-3)GlcNAc(b1-2)Man(a1-6)]Man(b1-4)GlcNAc(b1-4)[Fuc(a1-6)]GlcNAc
# Summary of the method: as §1
# [3] = target: Gal(b1-3)GlcNAc(b1-2)Man(a1-3)[GlcNAc(b1-4)][Gal(b1-3)GlcNAc(b1-2)Man(a1-6)]Man(b1-4)GlcNAc(b1-4)GlcNAc
# Summary of the method: as §1
# [4] = target: Gal(b1-3)GlcNAc(b1-2)[Gal(b1-3)GlcNAc(b1-6)]Man(a1-6)[Gal(b1-3)GlcNAc(b1-2)Man(a1-3)]Man(b1-4)GlcNAc(b1-4)GlcNAc
# Summary of the method: as §1
# [5] = target: Gal(b1-3)GlcNAc(b1-3)Gal(b1-3)GlcNAc
# Summary of the method: as §1
# [6] = target: Gal(b1-3)GlcNAc(b1-3)Gal(b1-4)Glc
# Summary of the method: as §1
# [7] = target: Gal(b1-3)GlcNAc(b1-3)Gal(b1-4)GlcNAc
# Summary of the method: as §1
# [8] = target: Gal(b1-3)GlcNAc(b1-3)Gal(b1-4)GlcNAc(b1-2)Man(a1-3)[Gal(b1-3)GlcNAc(b1-3)Gal(b1-4)GlcNAc(b1-2)Man(a1-6)]Man(b1-4)GlcNAc(b1-4)GlcNAc
# Summary of the method: as §1
# [9] = target: Gal(b1-3)GlcNAc(b1-3)Gal(b1-4)GlcNAc(b1-2)[Gal(b1-3)GlcNAc(b1-3)Gal(b1-4)GlcNAc(b1-6)]Man(a1-6)[Gal(b1-3)GlcNAc(b1-3)Gal(b1-4)GlcNAc(b1-2)Man(a1-3)]Man(b1-4)GlcNAc(b1-4)[Fuc(a1-6)]GlcNAc
# Summary of the method: as §1
# [10] = target: Gal(b1-3)GlcNAc(b1-3)Gal(b1-4)GlcNAc(b1-3)Gal(b1-4)GlcNAc(b1-2)[Gal(b1-3)GlcNAc(b1-3)Gal(b1-4)GlcNAc(b1-3)Gal(b1-4)GlcNAc(b1-6)]Man(a1-6)[Gal(b1-3)GlcNAc(b1-3)Gal(b1-4)GlcNAc(b1-3)Gal(b1-4)GlcNAc(b1-2)Man(a1-3)]Man(b1-4)GlcNAc(b1-4)[Fuc(a1-6)]GlcNAc
# Summary of the method: as §1
# [11] = target: Gal(b1-3)GlcNAc(b1-3)Gal(b1-4)GlcNAc(b1-6)[Gal(b1-3)GlcNAc(b1-3)]Gal(b1-4)Glc
# Summary of the method: as §1
# [12] = target: Gal(b1-3)GlcNAc(b1-3)Gal(b1-4)[Fuc(a1-3)]GlcNAc
# Summary of the method: as §1
# [13] = target: Gal(b1-3)GlcNAc(b1-3)Gal(b1-4)[Fuc(a1-3)]GlcNAc(b1-6)[Gal(b1-3)GlcNAc(b1-3)]Gal(b1-4)Glc
# Summary of the method: as §1
# [14] = target: Gal(b1-3)GlcNAc(b1-3)GalNAc
# Summary of the method: as §1
# [15] = target: Gal(b1-3)GlcNAc(b1-6)Gal(b1-4)GlcNAc
# Summary of the method: as §1
# [16] = target: Gal(b1-3)GlcNAc(b1-6)GalNAc
# Summary of the method: as §1
# [17] = target: Gal(b1-3)GlcNAc(b1-6)[Gal(b1-3)]GalNAc
# Summary of the method: as §1
# Gal(b1-3)GlcNAc6S = target: Gal(b1-3)GlcNAc6S
# Summary of the method: as §1
# [18] = target: Gal(b1-3)[Fuc(a1-4)]GlcNAc
# Summary of the method: as §1
# [19] = target: Gal(b1-3)[Fuc(a1-4)]GlcNAc(b1-2)Man
# Summary of the method: as §1
# [20] = target: Gal(b1-3)[Fuc(a1-4)]GlcNAc(b1-2)Man(a1-3)[Gal(b1-3)[Fuc(a1-4)]GlcNAc(b1-2)Man(a1-6)]Man(b1-4)GlcNAc(b1-4)[Fuc(a1-6)]GlcNAc
# Summary of the method: as §1
# [21] = target: Gal(b1-3)[Fuc(a1-4)]GlcNAc(b1-3)Gal(b1-3)[Fuc(a1-4)]GlcNAc
# Summary of the method: as §1
binder,measurement,setting,value
B1,glycan array binding signal (z-score),[1],-0.007
same,glycan array binding signal (z-score),[2],-0.087
same,glycan array binding signal (z-score),[3],-0.122
same,glycan array binding signal (z-score),[4],-0.06
same,glycan array binding signal (z-score),[5],-0.196
same,glycan array binding signal (z-score),[6],-0.159
same,glycan array binding signal (z-score),[7],-0.146
same,glycan array binding signal (z-score),[8],-0.127
same,glycan array binding signal (z-score),[9],0.008
same,glycan array binding signal (z-score),[10],-0.098
same,glycan array binding signal (z-score),[11],-0.148
same,glycan array binding signal (z-score),[12],-0.184
same,glycan array binding signal (z-score),[13],-0.115
same,glycan array binding signal (z-score),[14],-0.067
same,glycan array binding signal (z-score),[15],-0.081
same,glycan array binding signal (z-score),[16],-0.142
same,glycan array binding signal (z-score),[17],-0.132
same,glycan array binding signal (z-score),Gal(b1-3)GlcNAc6S,-0.128
same,glycan array binding signal (z-score),[18],-0.12
same,glycan array binding signal (z-score),[19],-0.188
same,glycan array binding signal (z-score),[20],-0.073
same,glycan array binding signal (z-score),[21],-0.167
